Laboratory results from PubChem BioAssay AID488969 (Vanderbilt High Throughput Screening Facility, 2010).
In all, about 110,000 compounds were measured (“z-score”: median about -0.1, highest 2% from about 2 on). The list shows a part of the results. Activity calls are given as the source filed them.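 Rule for the calls: active = z-score in the third read window above 3 or below -3; inactive = the rest.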

Each compound was assayed against Metabotropic glutamate receptor 8 (Rattus norvegicus) (UniProt P70579) (assay: mGluR8 Gi/Go-coupled signaling modulation – cell-based, rat, thallium flux, HTS, primary screen (AID 488969)). Details: HEK293 rat mGluR8, GIRK (G protein-gated inwardly rectifying potassium channel) thallium flux, FluoZin2; at 10 µM; stronger effect = higher value; submaximal glutamate (EC20) added with thallium.
UniProt P70579, sequence (P70579 whole entry, looked up): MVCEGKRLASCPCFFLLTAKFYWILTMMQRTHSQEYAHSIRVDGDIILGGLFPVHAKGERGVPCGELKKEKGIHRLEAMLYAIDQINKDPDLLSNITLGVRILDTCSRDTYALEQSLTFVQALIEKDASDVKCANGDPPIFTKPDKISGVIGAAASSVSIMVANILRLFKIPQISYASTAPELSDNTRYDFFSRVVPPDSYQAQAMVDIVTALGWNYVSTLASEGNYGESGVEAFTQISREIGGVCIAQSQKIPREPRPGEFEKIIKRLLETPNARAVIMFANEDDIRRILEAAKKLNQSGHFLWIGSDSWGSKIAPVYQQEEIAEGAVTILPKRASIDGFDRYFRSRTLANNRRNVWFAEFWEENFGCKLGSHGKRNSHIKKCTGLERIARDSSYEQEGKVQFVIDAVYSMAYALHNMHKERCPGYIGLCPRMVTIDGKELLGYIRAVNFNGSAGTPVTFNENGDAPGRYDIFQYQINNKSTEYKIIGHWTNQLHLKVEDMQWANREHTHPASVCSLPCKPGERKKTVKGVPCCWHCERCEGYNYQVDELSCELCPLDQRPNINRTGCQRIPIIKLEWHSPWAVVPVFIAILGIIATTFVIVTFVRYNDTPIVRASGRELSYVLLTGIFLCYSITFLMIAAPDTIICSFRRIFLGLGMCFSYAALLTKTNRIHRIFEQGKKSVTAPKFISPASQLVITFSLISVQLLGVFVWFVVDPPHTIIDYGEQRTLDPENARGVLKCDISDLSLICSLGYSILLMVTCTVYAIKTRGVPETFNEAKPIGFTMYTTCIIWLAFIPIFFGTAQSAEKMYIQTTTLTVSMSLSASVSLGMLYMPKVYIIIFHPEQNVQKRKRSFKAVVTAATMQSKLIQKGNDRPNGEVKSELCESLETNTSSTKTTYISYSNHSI

In order of falling z-score:
1. Cc1ccc(OCC(=O)NC(=S)Nc2cccc(C)n2)cc1  1.99
2. O=C(NC(=S)NNC(=O)c1cccs1)c1ccco1  1.08
3. CCN(CC)c1ccc(C(=O)NC(=S)Nc2cc(S(=O)(=O)N3CCOCC3)ccc2-n2cncn2)cc1  0.811
4. Cn1c(=O)c2c(nc(CN3CCOCC3)n2CCCc2ccccc2)n(C)c1=O  0.672
5. CS(=O)(=O)N(Cc1ccco1)Cc1ccccc1Cl  0.604
6. Nc1cc(-c2ccccc2)ccc1O  0.539
7. Cc1nnc(SCC(=O)N2CCN(S(=O)(=O)c3ccc(Cl)cc3)CC2)[nH]c1=O  0.514
8. CS(=O)(=O)Nc1ccc2c(c1)C(=O)OC2  0.424
9. Fc1ccc(Cn2nnnc2C(c2cccs2)N2CCCCCC2)cc1 (stereo not given)  0.381
10. O=C(CN(Cc1ccco1)C(=O)CNS(=O)(=O)c1ccc(Cl)cc1)NCc1ccc(F)cc1  0.341
11. COc1cc2ccccc2cc1C(=O)Nc1ccccc1N1CCN(S(C)(=O)=O)CC1  0.316
12. COCC(=O)Nc1ccccc1C(=O)Nc1ccc(OC)cc1  0.304
13. CCNC(=S)Nc1cc(Cl)ccc1Oc1ccccc1  0.269
14. CN1CCCCCC1=Nc1ccccc1C#N  0.245
15. NC(=O)NC(=O)COC(=O)CCCc1c[nH]c2ccccc12  0.245
16. Cc1cc2ncn(/N=C/c3ccc([N+](=O)[O-])o3)c2cc1C  0.239
17. c1cncc(-c2nnc3n2CCC3)c1  0.227
18. COc1cccc(NS(=O)(=O)c2ccc3c(c2)n(C)c(=O)c(=O)n3C)c1  0.179
19. CCOc1ccc(Br)cc1CC(=O)O  0.168
20. O=C(/C=C/c1ccc2c(c1)OCO2)N1CCN(c2ccc(Cl)cc2)CC1  0.167
21. Oc1ccccc1C=NC1=NN(c2cccc(C(F)(F)F)c2)CC1  0.167
22. Cc1ccc(NC(=S)N2CCN(c3ncccn3)CC2)cc1C  0.148
23. O=C1CC(c2ccccc2)n2nc(NC(=O)c3cccnc3)nc2N1 (stereo not given)  0.141
24. C=CCNC(=O)c1ccc(-c2nc(-c3ccccc3)cs2)cc1  0.133
25. CCCn1c(C(O)c2ccc(OC)cc2)nc2ccccc21 (stereo not given)  0.131
26. CC(CNc1ccccc1O)C(=O)O (stereo not given)  0.108
27. CC(=O)Nc1ccc(Oc2ccc(-c3noc(C)n3)cc2)cc1  0.104
28. Cn1c(CCNC(=O)c2ccccc2F)nnc1SCc1nc2ccccc2c(=O)[nH]1  0.0964
29. CC(=O)Nc1ccc(NC(=O)C(C)OC(=O)CCC(=O)c2ccc(F)cc2)cc1 (stereo not given)  0.0797
30. O=[N+]([O-])c1cc(S(=O)(=O)C(F)(F)F)ccc1Sc1nc2ccccc2s1  0.0462
31. COc1ccc(S(=O)(=O)CC(O)CN2CCCC2=O)cc1 (stereo not given)  0.0398
32. O=C(NCCC1=CCCCC1)C1CCN(S(=O)(=O)c2cccc3nsnc23)CC1  0.0327
33. C=CC[N+]1(CC#CCOC(c2ccccc2)c2ccccc2)CCOCC1  0.0259
34. C=CCc1ccccc1OCC(O)CN1CCN(CCN2C(=O)c3cccc4cccc(c34)C2=O)CC1 (stereo not given)  -0.0124
35. Cc1cccc(-n2c(Cc3cc(=O)[nH]c(=O)[nH]3)nnc2SCC(=O)NCC2CCCO2)c1 (stereo not given)  -0.0137
36. CCNC(=O)CC1C(=O)N(C)C(=S)N1NC(=O)c1ccc(Cl)cc1 (stereo not given)  -0.031
37. COc1cnc(-c2ccccc2)nc1Oc1ccc(C(C)(C)C)cc1  -0.0375
38. CCOc1cc(C2NC(=O)NC(c3ccccc3)=C2C(C)=O)ccc1OCC(N)=O (stereo not given)  -0.0384
39. Cn1c(SCC(=O)NCCc2ccccc2)nnc1-c1ccco1  -0.047
40. FC(F)Oc1ccc(-c2csc(Cc3nnc4n3CCCCC4)n2)cc1  -0.0502
41. COc1ccc(CN(CCC(c2ccccc2)C2CCOC(C)(C)C2)C(C)=O)cc1 (stereo not given)  -0.06
42. CC(=O)Nc1cccc(NC(=O)C2CC(=O)N(c3ccc(C)cc3)C2)c1 (stereo not given)  -0.0638
43. COc1ccc(Cl)cc1NS(=O)(=O)c1ccc(OC)c(OC)c1  -0.0674
44. COC(=O)Cc1ccc2c3ccccc3n(C)c2c1  -0.078
45. CCOC(CNC(=O)CCc1c(C)nc2ncnn2c1C)OCC  -0.0825
46. O=C(COC(=O)C1CCN(S(=O)(=O)c2ccc3c(c2)OCCO3)CC1)Nc1ccccc1OC(F)F  -0.0924
47. CCOc1cc(C2C(C#N)=C(N)Oc3n[nH]c(C)c32)ccc1OCCN1CCOCC1 (stereo not given)  -0.102
48. O=C(Oc1ccc(Cl)c2cccnc12)N1CCCCCC1  -0.103
49. N#Cc1cn(-c2ccccc2)nc1-c1ccc2c(c1)OCCO2  -0.106
50. COc1ccc(Br)cc1/C=N/NC(=O)c1ccc(COc2ccc3c(c2)CCC3)o1  -0.107
51. COc1ccc(CN2C(=O)Cc3c2nc(N)c2c(N)nc(N4CCCCC4)c(C#N)c32)cc1  -0.113
52. Cc1nn(C(C)C(=O)N2CCCCC2)c(=O)c2c1sc1ccccc12 (stereo not given)  -0.115
53. COc1c2c(nc3occc13)C(CC=C(C)C)(OC)C(O)CC2 (stereo not given)  -0.121
54. Cc1c(Cl)c(=O)oc2cc(OC(C)C)ccc12  -0.125
55. COCCCNC(NC(=O)c1ccc(C)cc1)C(Cl)(Cl)Cl (stereo not given)  -0.126
56. O=C(COc1ccc(/C=N/NS(=O)(=O)c2ccccc2)cc1)Nc1ccccc1  -0.127
57. CCOc1ccc2nc(SCC(=O)N3CCCc4ccccc43)sc2c1  -0.128
58. O=[N+]([O-])c1ccc(C2Nc3cccc4cccc(c34)N2)cc1  -0.131
59. COCCn1c(Cc2ccccc2)nnc1SCC(=O)N1CCCCC1C (stereo not given)  -0.132
60. Cc1cccc(C(=O)NCCCN2CCCC2=O)c1  -0.137
61. Cc1occc1C(=O)NNC(=S)Nc1cccc([N+](=O)[O-])c1  -0.138
62. COc1ccc(-c2nc(NC(=O)c3ccc(OCC(=O)Nc4ccc(F)cc4)c(OC)c3)sc2C)cc1  -0.143
63. N#Cc1cccc(-n2c(-c3ccccc3)nnc2-c2ccccc2)c1C#N  -0.147
64. CSc1nccc(Oc2cccc(C#N)c2)n1  -0.149
65. COc1ccc(N2CCN(CC(=O)Nc3cccc(S(=O)(=O)N4CCOCC4)c3)CC2)cc1  -0.151
66. O=C(CC1NC(=O)NC1=O)Nc1cccc2ccccc12 (stereo not given)  -0.153
67. CCCc1nc2ccc(NC(=O)c3cccs3)cc2c(=O)n1Cc1ccc(Cl)cc1  -0.155
68. CC1(C)CC(CC(=O)O)(c2ccc(Cl)cc2)CCO1 (stereo not given)  -0.155
69. O=C1NC(Cc2c[nH]c3ccccc23)C(=O)N1Cc1cccc2ccccc12 (stereo not given)  -0.157
70. COc1ccc(C(=O)/C=C/c2ccc(N3CCCCC3)c([N+](=O)[O-])c2)c(OC)c1  -0.161
71. CN(Cc1ccccc1)C(NC(=O)c1ccccc1)C(Cl)(Cl)Cl (stereo not given)  -0.194
72. CN(C)c1ncc(S(=O)(=O)c2ccc(Cl)cc2)c(-c2ccccc2)n1  -0.204
73. COc1ccccc1C(=O)NCC(=O)Nc1ccccc1  -0.213
74. CCN(CC)S(=O)(=O)c1ccc(C(=O)NCCc2cc3c(OC)ccc(OC)c3[nH]c2=O)cc1  -0.217
75. Cc1ccc(C2C3=C(Nc4[nH]n(-c5ccccc5)c(=O)c42)c2ccccc2C3=O)cc1 (stereo not given)  -0.223
76. CS(=O)(=O)N(CC(=O)N1CCCCCC1)Cc1ccc(Cl)cc1  -0.225
77. C[N+](C)(C)CC/C=C1/c2ccccc2CSc2ccccc21  -0.226
78. CC(C)(C)Nc1nc(NCc2cccnc2)nc(N2CCOCC2)n1  -0.236
79. Cc1cc(C(F)F)n2nc(C(=O)Nc3ccccc3Br)nc2n1  -0.246
80. Cc1cccc(N2CC(=O)N(c3cccc(C)c3)CC2=O)c1  -0.269
81. CCCCn1nc2cc(C(=O)NCc3ccc(C(F)(F)F)cc3C(F)(F)F)ccc2c1OCC  -0.313
82. CCOCCCNC(=O)C(=O)NCCCOCC  -0.334
83. Cc1nc(Nc2ccc3c(c2)OCO3)c2oc3ccccc3c2n1  -0.335
84. O=C(Nc1ccc(SC(F)F)cc1)c1cccc2nc3ccccc3nc12  -0.355
85. Brc1c(CSc2nc3ccccc3s2)nc2ncccn12  -0.356
86. Cc1ccc(-c2csc(N/N=C/c3ccco3)n2)cc1  -0.357
87. O=C(CCn1nnc2ccccc21)Nc1nnc(Cc2ccccc2)s1  -0.361
88. CC(C(=O)Nc1cccc([N+](=O)[O-])c1)n1nnc2ccccc21 (stereo not given)  -0.37
89. C[C@@]12CC(=O)NC1N(C(=O)c1cccc(C(F)(F)F)c1)C(c1ccccc1OC(=O)c1cccc(C(F)(F)F)c1)C2 (stereo not given in full)  -0.4
90. COc1cc(NC(=O)c2cc(-n3cnnc3)ccc2Cl)cc(OC)c1  -0.403
91. COc1ccc(Cc2nc3c4c(ncn3n2)Oc2ccc3ccccc3c2C4c2ccc(OC)c(OC)c2)cc1 (stereo not given)  -0.407
92. COc1ccc(S(=O)(=O)N2Cc3ccccc3CC2C(=O)Nc2ccc(O)cc2)cc1OC (stereo not given)  -0.415
93. O=C(Nc1ccccc1Br)C1CC(=O)N(c2ccc3c4c(cccc24)CC3)C1 (stereo not given)  -0.441
94. CSc1sc(C(=O)O)c(C)c1C(C)=O  -0.486
95. CC(C)CCN(C)C1CCN(S(=O)(=O)c2ccc(F)cc2)CC1  -0.527
96. C=CCn1nnc2sc3c(c2c1=O)CCC(C)C3 (stereo not given)  -0.544
97. C/C(=N/NC(=O)c1ccoc1C)c1cccc(NC(=O)C(F)(F)F)c1  -0.552
98. O=C(c1ccc(N2CCCC2=O)cc1)N1CCN(c2ccccc2)CC1  -0.556
99. O=C1c2oc3ccccc3c(=O)c2C(c2cccc(O)c2)N1c1ccccn1 (stereo not given)  -0.576
100. O=S(=O)(c1ccc2nc(COc3ccc(Cl)cc3Cl)[nH]c2c1)N1CCOCC1  -0.748
101. Cc1cccc(N2CCCn3c2nc2c3c(=O)n(CCN3CCOCC3)c(=O)n2C)c1  -0.753
102. O=C(Nc1ccccn1)c1cccc(S(=O)(=O)N2CCCCC2)c1  -1
103. CCCSc1nc(N2CCOCC2)c2c(c1C#N)CCCC2  -1.15
104. N#CCCN(Cc1cccnc1)S(=O)(=O)c1ccc(S(=O)(=O)N2CCCCCC2)cc1  -1.43
105. COc1ccccc1NC(=O)CSc1nnc(-c2ccccn2)n1Cc1ccco1  -1.55
106. CC1=C(C(=O)NC(C)C)C2(CCC(C)CC2)OC1=O (stereo not given)  -1.59
107. CSc1ccc(S(=O)(=O)NCc2ccccc2Cl)cc1  -2.48

With `COc1ccc2nc(NC(=S)N(C)C)sc2c1` the z-score was active: 14.8.
With `CCOC(=O)C1=C(NC(=S)NC(=O)c2ccccc2)c2ccccc2CC1(C)C` the z-score was active: 5.58.
With `CCCc1ccc(C(=O)N2CCN(c3ccccc3OCC)CC2)cc1` the z-score was active: -3.53.
